{"source": "paper PMC10412561", "about": "(Nature Communications, 2023)", "molecular_target": "T1, ValDLT (Vibrio alginolyticus, UniProt A0A7Y4B3E8)", "T1 construct": "gene F0254_14065", "note": "Like-named read-outs stand apart in the source and are kept apart here.", "data": [{"smiles": "CCCCC/C=C\\C/C=C\\C/C=C\\C/C=C\\CCCC(=O)O", "note": "[ARA, arachidonic acid]", "values": [{"measurement": "X-ray crystal structure of the complex", "setting": "co-crystallised with 1.25 mM ARA, acyl-binding pocket", "result": "We also solved the structures of ValDLT in complex with arachidonic acid (ARA)"}]}, {"smiles": "CCCCCCCC/C=C\\CCCCCCCC(=O)O", "note": "[OLA, oleic acid]", "values": [{"measurement": "X-ray crystal structure of the complex", "setting": "co-crystallised with 1 mM oleoyl-CoA, oleic acid modelled in acyl-binding pocket of monomer A", "result": "we solved the ValDLT structure in complex with oleic acid (OLA)"}]}, {"smiles": "CC/C=C\\C/C=C\\C/C=C\\C/C=C\\C/C=C\\C/C=C\\CCC(=O)O", "note": "[DHA, docosahexaenoic acid]", "values": [{"measurement": "X-ray crystal structure of the complex", "setting": "co-crystallised with 1.25 mM DHA, acyl-binding pocket", "result": "arachidonic acid (ARA) and docosahexaenoic acid (DHA), two other long-chain fatty acids"}]}, {"smiles": "CCCCCCCCCCCC(=O)O", "note": "[LAA, lauric acid]", "values": [{"measurement": "X-ray crystal structure of the complex", "setting": "co-crystallised with 3 mM sodium laurate, acyl-binding pocket of monomer A", "result": "We solved the crystal structure of ValDLT in complex with lauric acid (LAA)"}]}]}
